In all, about 33,000 sequences were measured (“E-score (-0.5 to 0.5)”: median about -0.053, highest 2% from about 0.37 on). Some of the results follow.

Sequence of UniProt P0CE41 (P0CE41 whole entry, the tested form may be a part): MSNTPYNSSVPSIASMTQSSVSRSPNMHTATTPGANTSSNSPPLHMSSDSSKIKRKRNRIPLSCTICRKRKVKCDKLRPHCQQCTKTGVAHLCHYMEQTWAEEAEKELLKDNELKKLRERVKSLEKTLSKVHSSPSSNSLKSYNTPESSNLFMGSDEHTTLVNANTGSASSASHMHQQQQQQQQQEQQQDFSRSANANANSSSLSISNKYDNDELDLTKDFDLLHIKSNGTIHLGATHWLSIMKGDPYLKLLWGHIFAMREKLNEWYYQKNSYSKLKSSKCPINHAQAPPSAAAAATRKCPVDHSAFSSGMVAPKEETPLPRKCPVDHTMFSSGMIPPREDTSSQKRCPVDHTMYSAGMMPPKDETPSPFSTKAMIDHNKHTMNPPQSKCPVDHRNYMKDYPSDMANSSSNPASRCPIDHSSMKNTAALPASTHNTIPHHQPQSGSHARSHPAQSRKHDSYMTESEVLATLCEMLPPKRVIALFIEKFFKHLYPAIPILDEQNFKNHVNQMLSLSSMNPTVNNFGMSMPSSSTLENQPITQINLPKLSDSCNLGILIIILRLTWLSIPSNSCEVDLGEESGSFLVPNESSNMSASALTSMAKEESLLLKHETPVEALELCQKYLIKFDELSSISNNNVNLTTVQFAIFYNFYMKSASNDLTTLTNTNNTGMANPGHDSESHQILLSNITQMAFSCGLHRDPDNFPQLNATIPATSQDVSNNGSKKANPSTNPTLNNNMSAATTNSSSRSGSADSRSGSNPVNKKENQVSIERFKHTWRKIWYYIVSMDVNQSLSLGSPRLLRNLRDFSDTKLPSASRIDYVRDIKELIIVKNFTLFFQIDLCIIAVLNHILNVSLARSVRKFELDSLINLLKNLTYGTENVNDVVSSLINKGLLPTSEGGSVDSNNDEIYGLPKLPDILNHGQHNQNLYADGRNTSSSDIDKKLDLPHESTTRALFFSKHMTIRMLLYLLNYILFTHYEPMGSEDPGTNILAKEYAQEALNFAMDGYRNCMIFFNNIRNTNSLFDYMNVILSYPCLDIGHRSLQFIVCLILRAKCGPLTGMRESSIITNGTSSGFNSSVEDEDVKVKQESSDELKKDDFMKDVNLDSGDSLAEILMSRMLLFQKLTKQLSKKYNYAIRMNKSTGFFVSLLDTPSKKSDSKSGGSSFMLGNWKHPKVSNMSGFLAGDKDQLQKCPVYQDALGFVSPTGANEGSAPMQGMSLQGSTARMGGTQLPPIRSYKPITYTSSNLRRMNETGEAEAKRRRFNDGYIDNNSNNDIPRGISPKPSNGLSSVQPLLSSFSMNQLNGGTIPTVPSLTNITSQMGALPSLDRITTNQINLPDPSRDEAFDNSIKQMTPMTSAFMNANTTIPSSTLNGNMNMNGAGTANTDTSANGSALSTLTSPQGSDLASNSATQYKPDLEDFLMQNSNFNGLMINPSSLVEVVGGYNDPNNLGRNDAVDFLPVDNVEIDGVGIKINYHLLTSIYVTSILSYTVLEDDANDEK

The experiment concerns the target Hap1 (UniProt P0CE41). Kind of experiment: PBM E-score (8-mer binding enrichment) (E-score (-0.5 to 0.5)); higher = stronger / more preferred TF binding; most listed sequences are background and not binding sites. The conditions noted are these: protein concentration: 200 nM; construct: GST-DNA-binding domain. The method, boiled down:
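E-scores (a modified Wilcoxon-Mann-Whitney statistic) were assigned by the Universal PBM Analysis Suite to every ungapped eight-base word pooled with its reverse complement. The input came from universal all-10-mer Agilent arrays made double-stranded by primer extension and probed with GST-tagged yeast transcription factors at about 100-200 nM. Fluorescent anti-GST detected bound protein, and masliner normalised the scans.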
As to CCGACGAC, the “PBM E-score” value was 0.272.
For the sequence ACCACAAA, the “PBM E-score” value stood at 0.00509.
Then CCTTAGAC, with -0.144; and CATTGAAG, with -0.193.
Consider TTAGCGAA, for which the “PBM E-score” value came out at 0.0366.
On to CGGCTCGC, for which the “PBM E-score” value amounted to 0.189.
For the sequence CAGCAAAC, the “PBM E-score” value was -0.11.
Then CCCTACTA, with -0.0173; and GATATGTA, with 0.021; and CGATACGA, with 0.196.
Then ACTTTTAT, with 0.0486; and AATAAGAT, with -0.0121.
Consider TAGCGTGA, for which the “PBM E-score” value was -0.256.
For the sequence TGGGTACA, the “PBM E-score” value was -0.13.
Then ATCATTTG, with 0.0381; and GGGTAATA, with -0.00588; and CCCCTACC, with -0.211.
To ACAAAAAG belongs -0.0481; to ACAAGCAT, -0.0294.
To GAAGTAGA belongs -0.0934.
For the sequence ATGCTGAC, the “PBM E-score” value is -0.253.
To CGATGCTC belongs 0.152; to TAAACGGA, 0.236; to TCACTGCA, -0.174.
Consider AGCCACAG, for which the “PBM E-score” value is -0.189.
Then CGTTATGC, with -0.0736; and CTTACTGA, with -0.137.
To ATCTACAC belongs -0.128; to CCCGATAG, 0.414.
Then ACTTTGTA, with -0.211.
As for CGGCCTAC, the “PBM E-score” value turned out to be 0.162.
To CAATTCCA belongs -0.0901.
To CAGAAAGC belongs -0.262.
Consider AAGTCCGT, for which the “PBM E-score” value is 0.417.
Then GGTTTAAA, with 0.0781; and ACGTCGAA, with -0.179.
In the case of GTGCACAA, the “PBM E-score” value is -0.0721.
Then ATTGTCTG, with -0.109.
To ATGGTCGG belongs 0.192; to AGTACCGC, 0.187; to CTGCACTA, 0.0173.
With AGGCATAA, the “PBM E-score” value is -0.0303.
As for CAATATAG, the “PBM E-score” value is -0.0976.
To CTGAATTA belongs 0.00258; to CTGCTAGC, -0.32.
To AAATTACT belongs -0.0232; to AGCGCAAT, -0.0796; to ACTAGGAC, -0.091.
For AGATCTTG, the “PBM E-score” value was -0.175.
To AACTCTGA belongs -0.00378; to AACCAGAA, -0.269.
To GAAAGTGA belongs -0.0915; to CCGACCAC, 0.194; to AAATGGTC, 0.0716.
To TACCGACA belongs 0.209; to ATCTCAGC, -0.0878; to AAAGCCAT, 0.00306.
With CGCATTCC, the “PBM E-score” value is 0.0252.
To CACGGCAA belongs 0.0851; to CACAGGGC, -0.144; to AACATCAG, -0.152.
Then TACGGAAA, with 0.316.
Then CGTGCCCA, with -0.0704; and ATCGCAGA, with -0.219; and ACTAAGCG, with -0.0531.
GTGAGTGA: the “PBM E-score” value is -0.17.
Turning to ACCCTAAC, the “PBM E-score” value worked out at 0.051.
Then ATCGTTTG, with 0.0269; and AATGATAG, with 0.176.
To GCCAAAGC belongs -0.066; to GACTACAC, -0.229; to CTAACTTA, 0.0135.
To ATAGTGTG belongs -0.157; to GAACCAGC, -0.0256.
Consider GCACCTGC, for which the “PBM E-score” value was -0.151.
To CACGGATC belongs 0.267; to ACCTAAAT, 0.105.
To GGGTCTAC belongs -0.0108; to GGTCAGGA, 0.0614.
To GGATAGCA belongs -0.103.
As for CTTCCTAC, the “PBM E-score” value is -0.355.
Then CTGTTAGA, with -0.174.
Then TAAAACCA, with -0.13; and ACGCGCTA, with -0.00788.
To ATCTGCGC belongs 0.00257.
For the sequence GCATGCAA, the “PBM E-score” value turned out to be 0.0148.
To CAGGCAAG belongs -0.183; to CTGCAGCA, -0.19.
To CGCCGCCC belongs 0.138; to CTTCAGTA, -0.111; to AAGGTAGG, -0.0701.
To CGATCATA belongs -0.0295; to GAGGAAAA, -0.0281; to AAACACTG, -0.137.
AACGGTCT: the “PBM E-score” value is 0.0385.
To GGACGCCC belongs 0.138.
To CAGGTCAA belongs -0.112.
Then TGGTGAAA, with -0.122.
On to CCAGGTCG, for which the “PBM E-score” value was -0.233.
To GCAAGACA belongs -0.0165; to CTGTCGAC, -0.14.
Turning to GTTAATAA, the “PBM E-score” value amounted to 0.142.
To CCACGGCG belongs 0.16; to TGGCCCAA, -0.141; to ACGAGTGG, -0.0351.
To AGTGATTG belongs -0.0722.
To CCGGTGGA belongs 0.39.
For ATTCTAGA, the “PBM E-score” value is -0.17.
To ACGTCGTA belongs -0.187; to AGCCCATC, -0.0849.

For the origin of these results see the supplement of paper PMC3334620.
